Data reported in article PMC12136788.
Some of the results follow.

B1: chr2:48720039:48721685:-|three_prime_utr|ENSG00000138039|control|control|control (ssRNA)
RNA: GGGAGUUCUACAGUCCGACGAUCGACUCUCUUUUAUAUCACUGGAUUCUAAAAAUUGGUAUCCUUGGUGCACUGCCUUUGUAUAGUACUUUUACUUUGUGUAGAUGUAAUUUUACAUGUAUAAUUGUCAUGUUACAAAGCUGUCAACAGAGGAUUGAGCAUCA
B2: ENSG00000173848:stop:overlap|stop_codon|ENSG00000173848|stop_codon|NA|stop_codon (ssRNA)
RNA: GGGAGUUCUACAGUCCGACGAUCGCAUCCGAAGAGCGAGGGACAAAGCCCUUUCUGGUGGCAAACGGAAAGAGACUUUGGUGUAGAGAAGGCUCUGUGUGUUAACUGAUGGGAGAGACUGUUUGUUUAUAAAUGUGUACAGUUCAACAGAGGAUUGAGCAUCA
B3: ENSG00000107863:be:win_2801|CDS|ENSG00000107863|bound_else_gene|NA|bound_elsewhere_windowed (ssRNA)
RNA: GGGAGUUCUACAGUCCGACGAUCAGGAAGGGUGGCUUCAUUUCCGACCCCUUGUCACCGAUAAGGGCAAGCGAGUUGGUGGAAGUAUUCGGCCAUGGAAACAGAUGUAUGUUGUCCUUCGGGGUCAUUCACUUUACCUGUACACAACAGAGGAUUGAGCAUCA
B4: chr10:73916565:73916770:+|3pUTR|ENSG00000122861|msi1|total|mutant (ssRNA)
RNA: GGGAGUUCUACAGUCCGACGAUCCUGGUUGUCAUUUUUGCAGCCGAGUCAUCUCCAUCAGCUGUAAGAAGAGACUGGGAAGACCGGCUCUGCACAGAUGGAUUUGCCUGUGCCACCCACCAGGGCGAACGACAACCGCUUUACCAACAGAGGAUUGAGCAUCA
B5: chr14:52327222:52327364:+|CDS|ENSG00000125384|unk|total|mutant (ssRNA)
RNA: GGGAGUUCUACAGUCCGACGAUCAUUUUUGCAUAUAUGAAUGAAACCUCUUCCCGAAAGGAAAAAUGGGACCUCCAAGCUCUCCGGUUUUUAUCAAUUAAUUCAAUAAUUGACCCUUGGGUCUUUGCCAUCCUCCGGCCUCCUCAACAGAGGAUUGAGCAUCA
B6: chr12:30629720:30629821:-|3pUTR|ENSG00000133704|msi1|FALSE|bound_elsewhere (ssRNA)
RNA: GGGAGUUCUACAGUCCGACGAUCCUUCUUGCUUUCUCACCUAUUUGAAUUUUCUCCUACCUAAUUUGUUUGUGUCUUUAUUAUAGCUCAGUUUGACUUCUCAAACUUUUCAAGGGUUGGGGCAGCUGCACUUUUAGGUUGCCUCAACAGAGGAUUGAGCAUCA
B7: chr10:98383567:98383797:-|three_prime_utr|ENSG00000119943|control|control|control (ssRNA)
RNA: GGGAGUUCUACAGUCCGACGAUCCCACCCCUGAAUUCCAAGUGCUCCAUUGGAUCAGCUUCCCAGGAAGUUCAGCUUCGGGUUAGUACAUAAGGCCACCACAAUGCUCAAGAAAUUAUUUUAGAAAAAACGUACGAGUUACAUCAACAGAGGAUUGAGCAUCA
B8: chr10:52765379:52768136:-|three_prime_utr|ENSG00000165471|control|control|control (ssRNA)
RNA: GGGAGUUCUACAGUCCGACGAUCUUGUUCCUUUUGUGGGCAAUCACUAAAAAUGAUCACUAACAGCACCAACAAAGCAAUAAUAGUAGUAGUAGUAGUUAGCAGCAGCAGUAGUAGUCAUGCUAAUUAUAUAAUAUUUUUAAUCAACAGAGGAUUGAGCAUCA
B9: chr1:111117940:111118053:-|3pUTR|ENSG00000156171|unk|FALSE|unique (ssRNA)
RNA: GGGAGUUCUACAGUCCGACGAUCAGGCUGACAGUAACACUGAUGAAUGCUGAUAAUCAGGAAACAUGAAAGAAGCCAUUUGAUAGAUUAUUCUAAAGGAUAUCAUCAAGAAGACUAUUAAAAACACCUAUGCCUAUACUUUUUCAACAGAGGAUUGAGCAUCA
B10: ENSG00000198589:be:win_5801|CDS|ENSG00000198589|bound_else_gene|NA|bound_elsewhere_windowed (ssRNA)
RNA: GGGAGUUCUACAGUCCGACGAUCUGUGUGAUCAUUUGAUAAGAGCAGCAAAAUAUCGUGACCACGUGACAGCAACUCAACUAAUCCAGAAAAUUAUCAACAUUCUCACAGACAAGCAUGGAGCCUGGGGAAAUUCUGCAGUGACAACAGAGGAUUGAGCAUCA
B11: ENSG00000124766:be:win_251|CDS|ENSG00000124766|bound_else_gene|NA|bound_elsewhere_windowed (ssRNA)
RNA: GGGAGUUCUACAGUCCGACGAUCUGCACAACGCCGAGAUCUCCAAGCGGCUGGGCAAACGCUGGAAGCUGCUCAAAGACAGCGACAAGAUCCCUUUCAUUCGAGAGGCGGAGCGGCUGCGCCUCAAGCACAUGGCUGACUACCCAACAGAGGAUUGAGCAUCA
B12: chr5:103210461:103210562:+|3pUTR|ENSG00000145725|unk|total|mutant (ssRNA)
RNA: GGGAGUUCUACAGUCCGACGAUCGAAUAAGGAGCUGGGAGAAAGGAGACCUGGGUAUUAAUCUCAGCUCUACCACUACAUGGCCGAGCUAUGCCGUGGCCGACUAUCUGGGAGACUCCCGAAUCUUUACCAUUCCCUCUACUACAACAGAGGAUUGAGCAUCA
B13: ENSG00000039319:stop:overlap|stop_codon|ENSG00000039319|stop_codon|NA|stop_codon (ssRNA)
RNA: GGGAGUUCUACAGUCCGACGAUCCCAACUCUAGUUUACCAUUAGAAAUAGAAUUAGUGUUUUUCAUUAUAGAACAUCUUUUUUAGUGAAAGAAUGUGCCAUAUUACAUAUUGCAACCUAAUUUGUUAAAACUAACUCCAGCACCAACAGAGGAUUGAGCAUCA
B14: chr5:83942588:83942842:-|3pUTR|ENSG00000164176|msi1|total|mutant (ssRNA)
RNA: GGGAGUUCUACAGUCCGACGAUCUUUUCUAAUUGAAUUUCCUAUCCGUUGACUAAAAGAAGUGUCAUGUUUACUCAUAUAUGCCGAACAUGACUGCCUAUCAGCCGAUUGAUCUGUAUUUAAUAUUCGUUAAUUAAAUCUGCACAACAGAGGAUUGAGCAUCA
B15: chr7:135928980:135929074:-|3pUTR|ENSG00000105887|msi1_unk|FALSE|overlapping (ssRNA)
RNA: GGGAGUUCUACAGUCCGACGAUCUAAAAAUAGAAUCAUAGCCAUAAGCCUGUUAGUAUCAUAUGAAGAGAGAACAGUUAUCUUAGUACCUAUGGAUUUUCUUUAUUUGCUGUUUGAAUGGAUUGACCUUGGUUAUGUGUUGAGCAACAGAGGAUUGAGCAUCA
B16: chr7:66987971:66988072:-|3pUTR|ENSG00000126524|unk|total|mutant (ssRNA)
RNA: GGGAGUUCUACAGUCCGACGAUCAAGUUACUUGAGGCAGCUCUUGUGGGUGAAAAGUUAUUUGUACAGCCGAGUAAGAUUAUCCGGGGUAUGUCUAUACAACAAAAGGGGGGGUCUUUCCUAAAAAAGAAAACAUAUGAUGCUCAACAGAGGAUUGAGCAUCA
B17: chr1:965281:965395:+|3pUTR|ENSG00000187961|unk|FALSE|unique (ssRNA)
RNA: GGGAGUUCUACAGUCCGACGAUCCCAUCCGUUCACGUCUCUGCAUCCAUUCCUUCAUGUCUUUAUUUAGUUGUUUAUUUAUUUAGUUAUUUAUCUUAUUUAUUGAGGGGUGAGGAGUGCCACGGCUGCCCGUUUACACCUUUACAACAGAGGAUUGAGCAUCA
B18: chr7:130166276:130166377:-|3pUTR|ENSG00000146842|msi1|total|mutant (ssRNA)
RNA: GGGAGUUCUACAGUCCGACGAUCUCUCUGAGCCACUGACUCUUCUGAAAUAAAAUACACAUGGGUGUAUGUUACAGACUCUUCCGAUUUAACAGAAAAUGCCGCUGUUAUGAAAUGUAAUUGUAAAAAUAUGUCCCGUAUCUUCAACAGAGGAUUGAGCAUCA
B19: ENSG00000107863:be:win_151|CDS|ENSG00000107863|bound_else_gene|NA|bound_elsewhere_windowed (ssRNA)
RNA: GGGAGUUCUACAGUCCGACGAUCGUUACGUUGAAAAGAACAUCUCAAGGCUUUGGUUUUACAUUAAGACAUUUUAUUGUUUAUCCCCCAGAGUCUGCAAUUCAAUUUUCAUAUAAGGAUGAAGAAAAUGGAAACAGAGGAGGACAACAGAGGAUUGAGCAUCA
B20: chr15:97973610:97973711:+|3pUTR|ENSG00000140450|unk|total|mutant (ssRNA)
RNA: GGGAGUUCUACAGUCCGACGAUCGGUGCACAAAAUCCUUCUGUGGGCAAAACUUUGUUUUUGUUUUGCACAGUAAGAAACAACCGGCAAGCGUUAUGUUUUUGGUAAGUUAACUAUGAAAGCUUUCUUAUUUUUAUUAUUAAACAACAGAGGAUUGAGCAUCA
B21: chr11:88113250:88114123:-|three_prime_utr|ENSG00000123892|control|control|control (ssRNA)
RNA: GGGAGUUCUACAGUCCGACGAUCUCGUGAAGCCCCAUCUCACAUCAACCAAGGUUGCCAGCUGCUCUGGCUGUGCCAAAUCCUAGUAGGCACCUUUGCUGGUGUCUGGUAGGAAUGACCUCAUUGUUCCACAAAUUGUGCCUCCAACAGAGGAUUGAGCAUCA
B22: chr11:35619468:35619569:+|CDS|ENSG00000179431|unk|total|mutant (ssRNA)
RNA: GGGAGUUCUACAGUCCGACGAUCCCCCCUCCGGGAUGCCGGGGGUGAGCUGGCCAACCUCAGCCAGGCGGAGCUGGUGGACCCCGUACAAUGGACCGACUUAAUCCUUUUCGACUACCUGACGGCCAACUUCGACCGGCUCGUCAACAGAGGAUUGAGCAUCA

These binders were tested against MSI1 full-length (mouse, UniProt Q61474 1-362) (assay: nsRBNS (natural sequence RNA bind-n-seq); RBNS binding buffer (assumed for nsRBNS): 25 mM Tris pH 7.5, 150 mM KCl, 3 mM MgCl2, 0.01% Triton X-100, 500 ug/ml BSA, 20 U/ml SUPERase-In, 4 C; UNK is unkempt and MSI1 is Musashi-1; names of the RNAs are library labels; protein concentration not given here; high values mean tight binding).
UniProt Q61474, sequence (Q61474 whole entry): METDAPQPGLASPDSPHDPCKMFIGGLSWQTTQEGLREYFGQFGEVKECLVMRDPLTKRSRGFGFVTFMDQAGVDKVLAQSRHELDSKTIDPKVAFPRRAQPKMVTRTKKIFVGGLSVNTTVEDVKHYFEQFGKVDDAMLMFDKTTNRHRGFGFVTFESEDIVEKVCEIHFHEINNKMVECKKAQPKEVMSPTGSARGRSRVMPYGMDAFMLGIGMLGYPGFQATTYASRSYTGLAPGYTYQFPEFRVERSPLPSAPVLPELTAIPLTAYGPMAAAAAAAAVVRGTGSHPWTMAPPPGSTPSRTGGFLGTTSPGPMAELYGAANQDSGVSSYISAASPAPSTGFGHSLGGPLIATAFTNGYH
B1 showed a binding signal of 0.346 enrichment R. In the case of B2, the binding signal is reported as 0.651 enrichment R. B3 showed a binding signal of 0.329 enrichment R. Work on B4 yielded a binding signal of 0.303 enrichment R. B5 was tested, and the binding signal was 0.343 enrichment R. In the case of B6, the binding signal is reported as 1.79 enrichment R. Binder B7 has a binding signal of 6.82 enrichment R. B8 showed a binding signal of 83.7 enrichment R. For B9, the binding signal was 0.423 enrichment R. With B10 the binding signal was 0.371 enrichment R. With B11 the binding signal was 0.383 enrichment R. In the case of B12, the binding signal is reported as 0.459 enrichment R. Binder B13 has a binding signal of 0.848 enrichment R. In the case of B14, the binding signal is reported as 0.411 enrichment R. For B15, the binding signal was 1.99 enrichment R. For B16, the binding signal was 0.484 enrichment R. For B17, the binding signal was 64.6 enrichment R. B18 gave a binding signal of 0.352 enrichment R. In the case of B19, the binding signal is reported as 0.542 enrichment R. Work on B20 yielded a binding signal of 1.02 enrichment R. In the case of B21, the binding signal is reported as 0.357 enrichment R. B22 showed a binding signal of 0.329 enrichment R.
